Changes are numbered by the printed parent chain; changes in the protein carry UniProt numbers. This is one part of the list.
T1: RBFOX1 RRM RbFoxmut (Fox-RRM*) (Homo sapiens, UniProt Q9NWB1 109-208, R118D;E147R;N151S;E152T)
T1 sequence: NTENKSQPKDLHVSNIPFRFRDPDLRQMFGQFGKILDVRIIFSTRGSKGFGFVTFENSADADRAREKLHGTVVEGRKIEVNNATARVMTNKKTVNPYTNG

B1: GACAGAA (DNA:RNA)
RNA: GGGAGACCGGAAUUCAGAUUGUCCGACAGAAUUAAAUCCCGUCGUAGCCACCA
DNA 1: CAATCTGAATTCCGGTCTCCC
DNA 2: TGGTGGCTACGACGGGATT
B2: GCUGCCG (DNA:RNA)
RNA: B1 RNA with A26C, C27U, A28G, G29C, A30C, A31G
DNA 1: CAATCTGAATTCCGGTCTCCC
DNA 2: TGGTGGCTACGACGGGATT
B3: AUACGUC (DNA:RNA)
RNA: B1 RNA with G25A, A26U, C27A, A28C, A30U, A31C
DNA 1: CAATCTGAATTCCGGTCTCCC
DNA 2: TGGTGGCTACGACGGGATT
B4: GCAUAGA (DNA:RNA)
RNA: B1 RNA with A26C, C27A, A28U, G29A, A30G
DNA 1: CAATCTGAATTCCGGTCTCCC
DNA 2: TGGTGGCTACGACGGGATT
B5: GGCACGA (DNA:RNA)
RNA: B1 RNA with A26G, G29C, A30G
DNA 1: CAATCTGAATTCCGGTCTCCC
DNA 2: TGGTGGCTACGACGGGATT
B6: GCCACAU (DNA:RNA)
RNA: B1 RNA with A26C, G29C, A31U
DNA 1: CAATCTGAATTCCGGTCTCCC
DNA 2: TGGTGGCTACGACGGGATT
B7: UUGCUGC (DNA:RNA)
RNA: GGGAGACCGGAAUUCAGAUUGUCCUUGCUGCUUAAAUCCCGUCGUAGCCACCA
DNA 1: CAATCTGAATTCCGGTCTCCC
DNA 2: TGGTGGCTACGACGGGATT
B8: GUAUUUG (DNA:RNA)
RNA: B7 RNA with U25G, G27A, C28U, G30U, C31G
DNA 1: CAATCTGAATTCCGGTCTCCC
DNA 2: TGGTGGCTACGACGGGATT
B9: CAGCAGC (DNA:RNA)
RNA: B7 RNA with U25C, U26A, U29A
DNA 1: CAATCTGAATTCCGGTCTCCC
DNA 2: TGGTGGCTACGACGGGATT
B10: UCGUUCA (DNA:RNA)
RNA: B7 RNA with U26C, C28U, G30C, C31A
DNA 1: CAATCTGAATTCCGGTCTCCC
DNA 2: TGGTGGCTACGACGGGATT
B11: CGUGCAG (DNA:RNA)
RNA: B1 RNA with G25C, A26G, C27U, A28G, G29C, A31G
DNA 1: CAATCTGAATTCCGGTCTCCC
DNA 2: TGGTGGCTACGACGGGATT
B12: AAUCCCU (DNA:RNA)
RNA: B1 RNA with G25A, C27U, A28C, G29C, A30C, A31U
DNA 1: CAATCTGAATTCCGGTCTCCC
DNA 2: TGGTGGCTACGACGGGATT
B13: UACUGUG (DNA:RNA)
RNA: B1 RNA with G25U, A28U, A30U, A31G
DNA 1: CAATCTGAATTCCGGTCTCCC
DNA 2: TGGTGGCTACGACGGGATT
B14: CAUGAUC (DNA:RNA)
RNA: B1 RNA with G25C, C27U, A28G, G29A, A30U, A31C
DNA 1: CAATCTGAATTCCGGTCTCCC
DNA 2: TGGTGGCTACGACGGGATT
B15: AACUUUC (DNA:RNA)
RNA: B1 RNA with G25A, A28U, G29U, A30U, A31C
DNA 1: CAATCTGAATTCCGGTCTCCC
DNA 2: TGGTGGCTACGACGGGATT
B16: CUUUGGA (DNA:RNA)
RNA: B1 RNA with G25C, A26U, C27U, A28U, A30G
DNA 1: CAATCTGAATTCCGGTCTCCC
DNA 2: TGGTGGCTACGACGGGATT
B17: CGCGGUU (DNA:RNA)
RNA: B1 RNA with G25C, A26G, A28G, A30U, A31U
DNA 1: CAATCTGAATTCCGGTCTCCC
DNA 2: TGGTGGCTACGACGGGATT
B18: UGGAAGC (DNA:RNA)
RNA: B7 RNA with U26G, C28A, U29A
DNA 1: CAATCTGAATTCCGGTCTCCC
DNA 2: TGGTGGCTACGACGGGATT
B19: ACUUUAC (DNA:RNA)
RNA: B7 RNA with U25A, U26C, G27U, C28U, G30A
DNA 1: CAATCTGAATTCCGGTCTCCC
DNA 2: TGGTGGCTACGACGGGATT
B20: AGCGCGU (DNA:RNA)
RNA: B1 RNA with G25A, A26G, A28G, G29C, A30G, A31U
DNA 1: CAATCTGAATTCCGGTCTCCC
DNA 2: TGGTGGCTACGACGGGATT
B21: UUCAGAG (DNA:RNA)
RNA: B1 RNA with G25U, A26U, A31G
DNA 1: CAATCTGAATTCCGGTCTCCC
DNA 2: TGGTGGCTACGACGGGATT
B22: AGAAAUA (DNA:RNA)
RNA: B1 RNA with G25A, A26G, C27A, G29A, A30U
DNA 1: CAATCTGAATTCCGGTCTCCC
DNA 2: TGGTGGCTACGACGGGATT
B23: CUUCAGA (DNA:RNA)
RNA: B7 RNA with U25C, G27U, U29A, C31A
DNA 1: CAATCTGAATTCCGGTCTCCC
DNA 2: TGGTGGCTACGACGGGATT
B24: GCCCGCA (DNA:RNA)
RNA: B1 RNA with A26C, A28C, A30C
DNA 1: CAATCTGAATTCCGGTCTCCC
DNA 2: TGGTGGCTACGACGGGATT
B25: ACGUUCG (DNA:RNA)
RNA: B7 RNA with U25A, U26C, C28U, G30C, C31G
DNA 1: CAATCTGAATTCCGGTCTCCC
DNA 2: TGGTGGCTACGACGGGATT
B26: CGCGCAU (DNA:RNA)
RNA: B1 RNA with G25C, A26G, A28G, G29C, A31U
DNA 1: CAATCTGAATTCCGGTCTCCC
DNA 2: TGGTGGCTACGACGGGATT
B27: GGAUCGG (DNA:RNA)
RNA: B1 RNA with A26G, C27A, A28U, G29C, A30G, A31G
DNA 1: CAATCTGAATTCCGGTCTCCC
DNA 2: TGGTGGCTACGACGGGATT
B28: GUGACGC (DNA:RNA)
RNA: B7 RNA with U25G, C28A, U29C
DNA 1: CAATCTGAATTCCGGTCTCCC
DNA 2: TGGTGGCTACGACGGGATT
B29: CGUGGGG (DNA:RNA)
RNA: B1 RNA with G25C, A26G, C27U, A28G, A30G, A31G
DNA 1: CAATCTGAATTCCGGTCTCCC
DNA 2: TGGTGGCTACGACGGGATT
B30: AUAGACG (DNA:RNA)
RNA: B7 RNA with U25A, G27A, C28G, U29A, G30C, C31G
DNA 1: CAATCTGAATTCCGGTCTCCC
DNA 2: TGGTGGCTACGACGGGATT
B31: CUGCUAA (DNA:RNA)
RNA: B7 RNA with U25C, G30A, C31A
DNA 1: CAATCTGAATTCCGGTCTCCC
DNA 2: TGGTGGCTACGACGGGATT

biological target: T1, RBFOX1 RRM RbFoxmut (Fox-RRM*); assay: EMSA; HiTS-Eq, 1 nM pool, 10 min; buffer printed only for the single-RNA assays: 10 mM Tris pH 7.5, 150 mM NaCl, 3.4 mM EDTA, 0.001% NP-40, 30 C; details: tags: His6 N-terminal (pET28a); label: 5' 32P
How it was run: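 These values rest on relative association constants, computed from read-count changes of each RNA species versus the control reaction and normalised to the cognate motif. Reads came from free RNA recovered by 8% native PAGE after purified RbFox RRM (wild type or mutant) at increasing concentrations was equilibrated for 10 min in 50 µL with 1 nM of a 5′-radiolabelled pool with 7 randomized nucleotides and DNA-annealed flanks.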

Binder | binding signal
B1 | 0.0707 KA relative to UGCAUGU
B2 | 0.0973 KA relative to UGCAUGU
B3 | 0.0725 KA relative to UGCAUGU
B4 | 0.132 KA relative to UGCAUGU
B5 | 0.226 KA relative to UGCAUGU
B6 | 0.0775 KA relative to UGCAUGU
B7 | 0.129 KA relative to UGCAUGU
B8 | 0.17 KA relative to UGCAUGU
B9 | 0.0908 KA relative to UGCAUGU
B10 | 0.117 KA relative to UGCAUGU
B11 | 0.09 KA relative to UGCAUGU
B12 | 0.0776 KA relative to UGCAUGU
B13 | 0.12 KA relative to UGCAUGU
B14 | 0.0812 KA relative to UGCAUGU
B15 | 0.0515 KA relative to UGCAUGU
B16 | 0.0574 KA relative to UGCAUGU

Binder | binding signal
B17 | 0.103 KA relative to UGCAUGU
B18 | 0.0933 KA relative to UGCAUGU
B19 | 0.114 KA relative to UGCAUGU
B20 | 0.118 KA relative to UGCAUGU
B21 | 0.0975 KA relative to UGCAUGU
B22 | 0.117 KA relative to UGCAUGU
B23 | 0.0961 KA relative to UGCAUGU
B24 | 0.0939 KA relative to UGCAUGU
B25 | 0.187 KA relative to UGCAUGU
B26 | 0.0928 KA relative to UGCAUGU
B27 | 0.176 KA relative to UGCAUGU
B28 | 0.0907 KA relative to UGCAUGU
B29 | 0.108 KA relative to UGCAUGU
B30 | 0.105 KA relative to UGCAUGU
B31 | 0.094 KA relative to UGCAUGU

— PMC9911399, “Two distinct binding modes provide the RNA-binding protein RbFox with extraordinary sequence specificity”
